# In a collection of fitness landscapes (doi:10.1016/j.celrep.2020.107928):
# In all, about 81,000 sequences were measured (“one-hybrid fitness for binding NBS DNA”: median about -0.1, highest 2% from about 0.36 on). The list shows a part of the results.
# B1: Caulobacter ParB omega fusion; a variant is named by its letters at X, in order, B8GW30 (parent)
# chain: MESVVVGEPGMSEGRRGLGRGLSALLGEVDAAPAQAPGEQLGGSREAPIEILQRNPDQPRRTFREEDLEDLSNSIREKGVLQPILVRPSPDTAGEYQIVAGERAWRAAQRAGLKTVPIMVRELDDLAVLEIGIIENVQRADLNVLEEALSYKVLMEKFERTQENIAQTIGKSXSHVANXMRLLXLPDEVQSYLVSGELTAXHARAIAAAADPVALAKQIIEGGLSVRETEALARKAPNLSAGKSKGGRPPRVKDTDTQALESDLSSVLGLDVSIDHRGSTGTLTITYATLEQLDDLCNRLTRGI
# Variants of: B1
# Assay: one-hybrid fitness for binding NBS DNA (the Noc-binding site; scaled: cognate 1, non-cognate 0); higher = stronger binding
# Conditions: with NBS DNA site
# Method in brief: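 The reporter was HIS3, with the binding site 19 bp from the promoter, in E. coli USO used for bacterial one-hybrid selection of Caulobacter ParB libraries with four specificity codons randomised. Growth was on M9 lacking histidine, with 0.1 mM IPTG and 5 mM 3-AT, for 48 hours at 37°C. Illumina sequencing covered plasmids before and after selection; three replicate libraries were pooled and variants with under 10 reads dropped. A fitness score is the log change in variant-to-wild-type read ratio, rescaled to the cognate and non-cognate references.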
row,Variant,one-hybrid fitness for binding NBS DNA
1,HNQT,≤ 0.2
2,QEFR,≤ 0.2
3,FRNS,≤ 0.2
4,QVAP,≤ 0.2
5,KHQH,≤ 0.2
6,QILF,≤ 0.2
7,IPTK,≤ 0.2
8,GHLM,≤ 0.2
9,QKFT,0.366
10,NACG,≤ 0.2
11,QNMN,≤ 0.2
12,TPGN,≤ 0.2
13,SRPE,≤ 0.2
14,HPKC,≤ 0.2
15,NAHG,≤ 0.2
16,DEYM,≤ 0.2
17,TTFT,≤ 0.2
18,AWVD,≤ 0.2
19,SNNC,≤ 0.2
20,SSSD,≤ 0.2
21,MVSR,0.258
22,RKMF,≤ 0.2
23,AWMG,≤ 0.2
24,TKGA,≤ 0.2

row,Variant,one-hybrid fitness for binding NBS DNA
1,DQNR,≤ 0.2
2,STQR,≤ 0.2
3,RWTE,≤ 0.2
4,QMMV,≤ 0.2
5,WLRA,≤ 0.2
6,RMHL,≤ 0.2
7,QMQD,≤ 0.2
8,KITG,≤ 0.2
9,NTHN,≤ 0.2
10,FCST,≤ 0.2
11,MVCP,≤ 0.2
12,MAQG,≤ 0.2
13,TEES,≤ 0.2
14,GKSV,≤ 0.2
15,QDEW,≤ 0.2
16,RAWP,≤ 0.2
17,KFDS,≤ 0.2
18,RYHP,≤ 0.2
19,NDRF,≤ 0.2
20,HRNM,≤ 0.2
21,VDHC,≤ 0.2
22,QMGL,≤ 0.2
23,NSHG,≤ 0.2
24,WYST,≤ 0.2

row,Variant,one-hybrid fitness for binding NBS DNA
1,MEKC,≤ 0.2
2,DHLT,≤ 0.2
3,YFLG,≤ 0.2
4,GNRR,≤ 0.2
5,GPSI,≤ 0.2
6,KKRH,≤ 0.2
7,SMVT,≤ 0.2
8,TRAL,≤ 0.2
9,QAII,≤ 0.2
10,LPLA,≤ 0.2
11,MKKN,≤ 0.2
12,RYTN,≤ 0.2
13,IRYL,≤ 0.2
14,MVAS,≤ 0.2
15,HHLN,≤ 0.2
16,PNDG,≤ 0.2
17,WITN,≤ 0.2
18,SWHW,≤ 0.2
19,IRPC,≤ 0.2
20,MKVG,≤ 0.2
21,TTVY,≤ 0.2
22,TDAL,≤ 0.2
23,WRRH,≤ 0.2
24,VHTC,≤ 0.2

row,Variant,one-hybrid fitness for binding NBS DNA
1,VQCR,≤ 0.2
2,MTIR,≤ 0.2
3,NLKV,≤ 0.2
4,PKDH,≤ 0.2
5,QFPF,≤ 0.2
6,RAIL,≤ 0.2
7,PKST,≤ 0.2
8,SCLS,≤ 0.2
9,SLVE,≤ 0.2
10,QHVM,≤ 0.2
11,FLLS,≤ 0.2
12,RCNQ,≤ 0.2
13,MDHW,≤ 0.2
14,KIDY,≤ 0.2
15,CVMS,≤ 0.2
16,EKNT,≤ 0.2
17,QEPA,≤ 0.2
18,CKMF,≤ 0.2
19,DGKT,≤ 0.2
20,QDHK,≤ 0.2
21,ENLT,≤ 0.2
22,RSVY,≤ 0.2
23,TVKW,≤ 0.2
24,APCF,≤ 0.2

row,Variant,one-hybrid fitness for binding NBS DNA
1,MYSC,≤ 0.2
2,NSNW,≤ 0.2
3,IMTT,≤ 0.2
4,MTPD,≤ 0.2
5,KIHS,≤ 0.2
6,RKYS,0.562
7,FTPG,≤ 0.2
8,LDKN,≤ 0.2
9,EPPG,≤ 0.2
10,KHVN,≤ 0.2
11,FYAE,≤ 0.2
12,FVCV,≤ 0.2
13,KPWC,≤ 0.2
14,PRQF,≤ 0.2
15,KSST,≤ 0.2
16,LDHE,≤ 0.2
17,YRRI,≤ 0.2
18,SAMY,≤ 0.2
19,YVIT,≤ 0.2
20,SWRK,≤ 0.2
21,QPAH,≤ 0.2
22,DSAA,≤ 0.2
23,FRDT,≤ 0.2
24,QVSL,≤ 0.2

row,Variant,one-hybrid fitness for binding NBS DNA
1,GRYA,≤ 0.2
2,SGSN,≤ 0.2
3,FASG,≤ 0.2
4,RSPA,≤ 0.2
5,FRYR,≤ 0.2
6,PAAQ,≤ 0.2
7,RFWS,≤ 0.2
8,VRWR,≤ 0.2
9,RMAI,≤ 0.2
10,ATFP,≤ 0.2
11,ASTL,≤ 0.2
12,QTYL,≤ 0.2
13,AIEW,≤ 0.2
14,KTYG,≤ 0.2
15,GDYR,≤ 0.2
16,PKAW,≤ 0.2
17,RSSY,≤ 0.2
18,GNVV,≤ 0.2
19,ARTY,≤ 0.2
20,PPNW,≤ 0.2
21,NIHG,≤ 0.2
22,RMSF,≤ 0.2
23,LNDV,≤ 0.2
24,LVAC,≤ 0.2

row,Variant,one-hybrid fitness for binding NBS DNA
1,FTNL,≤ 0.2
2,CEPG,≤ 0.2
3,TDAC,≤ 0.2
4,ADCE,≤ 0.2
5,LVSN,≤ 0.2
6,SWES,≤ 0.2
7,SGNR,≤ 0.2
8,NYSI,≤ 0.2
9,RPFL,≤ 0.2
10,AKIF,≤ 0.2
11,CNRY,≤ 0.2
12,FVRS,≤ 0.2
13,SEYS,≤ 0.2
14,QYHA,0.234
15,GWTT,≤ 0.2
16,VSDR,≤ 0.2
17,PCKN,≤ 0.2
18,WWNS,≤ 0.2
19,AVNY,≤ 0.2
20,LATG,≤ 0.2
21,EPKC,≤ 0.2
22,INTP,≤ 0.2
23,HLRI,≤ 0.2
24,TGSY,≤ 0.2

row,Variant,one-hybrid fitness for binding NBS DNA
1,FHAT,≤ 0.2
2,PLIV,≤ 0.2
3,MHYG,≤ 0.2
4,PEVC,≤ 0.2
5,QKFH,≤ 0.2
6,GMPP,≤ 0.2
7,YRCY,≤ 0.2
8,LPYG,≤ 0.2
9,RTHQ,≤ 0.2
10,HFTS,≤ 0.2
11,DRLR,≤ 0.2
12,NWYY,≤ 0.2
13,QSMC,≤ 0.2
14,SDVP,≤ 0.2
15,VMAI,≤ 0.2
16,RCAW,0.431
17,RSAM,≤ 0.2
18,KMRR,0.398
19,EMKG,≤ 0.2
20,APSL,≤ 0.2
21,PTKN,≤ 0.2
22,AYCY,≤ 0.2
23,ATAL,≤ 0.2
24,PVHH,≤ 0.2

row,Variant,one-hybrid fitness for binding NBS DNA
1,QAAP,≤ 0.2
2,FPQW,≤ 0.2
3,HAHT,≤ 0.2
4,MVQG,≤ 0.2
5,QKGH,0.228
6,YRTG,≤ 0.2
7,DACA,≤ 0.2
8,SCFF,≤ 0.2
9,TDHI,≤ 0.2
10,CMGA,≤ 0.2
11,PVFR,≤ 0.2
12,LKVE,≤ 0.2
13,ISVC,≤ 0.2
14,TTAM,≤ 0.2
15,PDLH,≤ 0.2
16,PHSW,≤ 0.2
17,HSPI,≤ 0.2
18,MATW,≤ 0.2
19,AKNV,≤ 0.2
20,HTYP,≤ 0.2
21,SNVR,≤ 0.2
22,SRPY,≤ 0.2
23,TFSC,≤ 0.2
24,PWKA,≤ 0.2

row,Variant,one-hybrid fitness for binding NBS DNA
1,RYLR,0.354
2,RLCL,≤ 0.2
3,HRKR,0.395
4,QSEP,≤ 0.2
5,LYTT,≤ 0.2
6,LWWE,≤ 0.2
7,KEWR,≤ 0.2
8,KDHS,≤ 0.2
9,DITW,≤ 0.2
10,AMIS,≤ 0.2
11,LGKF,≤ 0.2
12,PPKK,≤ 0.2
13,ERHG,≤ 0.2
14,RDVM,≤ 0.2
15,MLHE,≤ 0.2
16,HLPC,≤ 0.2
17,CMVC,≤ 0.2
18,RHNR,0.539
19,VTNY,≤ 0.2
20,IKNR,≤ 0.2
21,KTPC,≤ 0.2
22,MHDG,≤ 0.2
23,LQSY,≤ 0.2
24,KVRG,≤ 0.2

row,Variant,one-hybrid fitness for binding NBS DNA
1,MEHS,≤ 0.2
2,NSCH,≤ 0.2
3,YRWN,≤ 0.2
4,AYCC,≤ 0.2
5,ATNM,≤ 0.2
6,AVIY,≤ 0.2
7,RHNL,≤ 0.2
8,RWGL,≤ 0.2
9,PHTL,≤ 0.2
10,ALQH,≤ 0.2
11,FKSN,≤ 0.2
12,RLAN,≤ 0.2
13,RAMA,≤ 0.2
14,HTEC,≤ 0.2
15,YMGR,≤ 0.2
16,QNLW,≤ 0.2
17,IETK,≤ 0.2
18,QPHD,≤ 0.2
19,ETKQ,≤ 0.2
20,NKWG,≤ 0.2
21,RLNN,≤ 0.2
22,HDFC,≤ 0.2
23,PDHR,≤ 0.2
24,AMRG,≤ 0.2

row,Variant,one-hybrid fitness for binding NBS DNA
1,SWTN,≤ 0.2
2,SKNG,≤ 0.2
3,HTAD,≤ 0.2
4,RGFP,≤ 0.2
5,AKSQ,≤ 0.2
6,YIRY,≤ 0.2
7,WGHH,≤ 0.2
8,GHKR,≤ 0.2
9,FPNG,≤ 0.2
10,RCAV,≤ 0.2
11,AVNL,≤ 0.2
12,TLCG,≤ 0.2
13,HRLW,≤ 0.2
14,WTTR,≤ 0.2
15,MQRG,≤ 0.2
16,RRVK,≤ 0.2
17,ACYL,≤ 0.2
18,KFFG,≤ 0.2
19,AVID,≤ 0.2
20,INER,≤ 0.2
21,FWEL,≤ 0.2
22,QTFK,≤ 0.2
23,AWDL,≤ 0.2
24,IQIG,≤ 0.2

row,Variant,one-hybrid fitness for binding NBS DNA
1,QRVE,≤ 0.2
2,SMCS,≤ 0.2
3,LNLR,≤ 0.2
4,YILC,≤ 0.2
5,FTYW,≤ 0.2
6,AVRK,≤ 0.2
7,TYHS,≤ 0.2
8,GPAY,≤ 0.2
9,LRYC,≤ 0.2
10,MRIR,≤ 0.2
11,NLTA,≤ 0.2
12,PSYY,≤ 0.2
13,SDNS,≤ 0.2
14,LIPK,≤ 0.2
15,FVVS,≤ 0.2
16,PYWG,≤ 0.2
17,QLQN,≤ 0.2
18,RSLI,≤ 0.2
